# Source: the supplement of paper PMC8728848
# The other results are listed elsewhere or left out.
# Key:
# Assay in all cases: glycan array binding signal (z-score within array); higher = stronger binding
# Settings in all cases: glycan notation: IUPAC condensed, linker removed
# [1] = target: Fuc(a1-2)Gal6S(b1-3)GlcNAc
# Outline: (§1)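 From the Consortium for Functional Glycomics database, 3228 arrays were curated, keeping only those whose protein sequence was available. Binding is given as a within-array Z-score averaged across arrays sharing a protein sequence and across linkers. Negative Z-scores can be read as non-binding.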
# [2] = target: Fuc(a1-2)Gal6S(b1-3)GlcNAc6S
# Outline: as §1
# [3] = target: Fuc(a1-2)Gal6S(b1-4)Glc
# Outline: as §1
# [4] = target: Fuc(a1-2)Gal6S(b1-4)Glc6S
# Outline: as §1
# [5] = target: Fuc(a1-2)GlcNAc
# Outline: as §1
# [6] = target: Fuc(a1-2)[Gal(a1-3)]Gal
# Outline: as §1
# [7] = target: Fuc(a1-2)[Gal(a1-3)]Gal(b1-3)GalNAc
# Outline: as §1
# [8] = target: Fuc(a1-2)[Gal(a1-3)]Gal(b1-3)GalNAc(b1-3)Gal(a1-4)Gal(b1-4)Glc
# Outline: as §1
# [9] = target: Fuc(a1-2)[Gal(a1-3)]Gal(b1-3)GlcNAc
# Outline: as §1
# [10] = target: Fuc(a1-2)[Gal(a1-3)]Gal(b1-3)GlcNAc(b1-2)Man(a1-3)[Fuc(a1-2)[Gal(a1-3)]Gal(b1-3)GlcNAc(b1-2)Man(a1-6)]Man(b1-4)GlcNAc(b1-4)GlcNAc
# Outline: as §1
# [11] = target: Fuc(a1-2)[Gal(a1-3)]Gal(b1-3)GlcNAc(b1-2)Man(a1-3)[Fuc(a1-2)[Gal(a1-3)]Gal(b1-3)GlcNAc(b1-2)Man(a1-6)]Man(b1-4)GlcNAc(b1-4)[Fuc(a1-6)]GlcNAc
# Outline: as §1
# [12] = target: Fuc(a1-2)[Gal(a1-3)]Gal(b1-3)GlcNAc(b1-3)GalNAc
# Outline: as §1
# [13] = target: Fuc(a1-2)[Gal(a1-3)]Gal(b1-3)GlcNAc(b1-6)GalNAc
# Outline: as §1
# [14] = target: Fuc(a1-2)[Gal(a1-3)]Gal(b1-4)Glc
# Outline: as §1
# [15] = target: Fuc(a1-2)[Gal(a1-3)]Gal(b1-4)GlcNAc
# Outline: as §1
# [16] = target: Fuc(a1-2)[Gal(a1-3)]Gal(b1-4)GlcNAc(b1-2)Man
# Outline: as §1
# [17] = target: Fuc(a1-2)[Gal(a1-3)]Gal(b1-4)GlcNAc(b1-2)Man(a1-3)[Fuc(a1-2)[Gal(a1-3)]Gal(b1-4)GlcNAc(b1-2)Man(a1-6)]Man(b1-4)GlcNAc(b1-4)GlcNAc
# Outline: as §1
# [18] = target: Fuc(a1-2)[Gal(a1-3)]Gal(b1-4)GlcNAc(b1-2)Man(a1-3)[Fuc(a1-2)[Gal(a1-3)]Gal(b1-4)GlcNAc(b1-2)Man(a1-6)]Man(b1-4)GlcNAc(b1-4)[Fuc(a1-6)]GlcNAc
# Outline: as §1
# [19] = target: Fuc(a1-2)[Gal(a1-3)]Gal(b1-4)GlcNAc(b1-3)GalNAc
# Outline: as §1
# [20] = target: Fuc(a1-2)[Gal(a1-3)]Gal(b1-4)GlcNAc(b1-3)[Fuc(a1-2)[Gal(a1-3)]Gal(b1-4)GlcNAc(b1-6)]GalNAc
# Outline: as §1
# [21] = target: Fuc(a1-2)[Gal(a1-3)]Gal(b1-4)GlcNAc(b1-6)GalNAc
# Outline: as §1
# [22] = target: Fuc(a1-2)[Gal(a1-3)]Gal(b1-4)[Fuc(a1-3)]Glc
# Outline: as §1
# [23] = target: Fuc(a1-2)[Gal(a1-3)]Gal(b1-4)[Fuc(a1-3)]GlcNAc
# Outline: as §1
# [24] = target: Fuc(a1-2)[Gal(a1-3)]Gal(b1-4)[Fuc(a1-3)]GlcNAc(b1-3)GalNAc
# Outline: as §1
# [25] = target: Fuc(a1-2)[Gal(a1-4)]Gal(b1-4)GlcNAc
# Outline: as §1
# [26] = target: Fuc(a1-2)[GalNAc(a1-3)]Gal
# Outline: as §1
# [27] = target: Fuc(a1-2)[GalNAc(a1-3)]Gal(b1-3)GalNAc(a1-3)[Fuc(a1-2)]Gal(b1-4)GlcNAc
# Outline: as §1
# [28] = target: Fuc(a1-2)[GalNAc(a1-3)]Gal(b1-3)GalNAc(b1-3)Gal(a1-4)Gal(b1-4)Glc
# Outline: as §1
# [29] = target: Fuc(a1-2)[GalNAc(a1-3)]Gal(b1-3)GlcNAc
# Outline: as §1
# [30] = target: Fuc(a1-2)[GalNAc(a1-3)]Gal(b1-3)GlcNAc(b1-2)Man(a1-3)[Fuc(a1-2)[GalNAc(a1-3)]Gal(b1-3)GlcNAc(b1-2)Man(a1-6)]Man(b1-4)GlcNAc(b1-4)GlcNAc
# Outline: as §1
# [31] = target: Fuc(a1-2)[GalNAc(a1-3)]Gal(b1-3)GlcNAc(b1-2)Man(a1-3)[Fuc(a1-2)[GalNAc(a1-3)]Gal(b1-3)GlcNAc(b1-2)Man(a1-6)]Man(b1-4)GlcNAc(b1-4)[Fuc(a1-6)]GlcNAc
# Outline: as §1
# [32] = target: Fuc(a1-2)[GalNAc(a1-3)]Gal(b1-3)GlcNAc(b1-3)GalNAc
# Outline: as §1
# [33] = target: Fuc(a1-2)[GalNAc(a1-3)]Gal(b1-3)GlcNAc(b1-6)GalNAc
# Outline: as §1
# [34] = target: Fuc(a1-2)[GalNAc(a1-3)]Gal(b1-4)Glc
# Outline: as §1
# [35] = target: Fuc(a1-2)[GalNAc(a1-3)]Gal(b1-4)GlcNAc
# Outline: as §1
# [36] = target: Fuc(a1-2)[GalNAc(a1-3)]Gal(b1-4)GlcNAc(b1-2)Man
# Outline: as §1
# [37] = target: Fuc(a1-2)[GalNAc(a1-3)]Gal(b1-4)GlcNAc(b1-2)Man(a1-3)[Fuc(a1-2)[GalNAc(a1-3)]Gal(b1-4)GlcNAc(b1-2)Man(a1-6)]Man(b1-4)GlcNAc(b1-4)GlcNAc
# Outline: as §1
# [38] = target: Fuc(a1-2)[GalNAc(a1-3)]Gal(b1-4)GlcNAc(b1-2)Man(a1-3)[Fuc(a1-2)[GalNAc(a1-3)]Gal(b1-4)GlcNAc(b1-2)Man(a1-6)]Man(b1-4)GlcNAc(b1-4)[Fuc(a1-6)]GlcNAc
# Outline: as §1
# [39] = target: Fuc(a1-2)[GalNAc(a1-3)]Gal(b1-4)GlcNAc(b1-3)Gal(b1-4)GlcNAc
# Outline: as §1
# [40] = target: Fuc(a1-2)[GalNAc(a1-3)]Gal(b1-4)GlcNAc(b1-3)Gal(b1-4)GlcNAc(b1-3)Gal(b1-4)GlcNAc
# Outline: as §1
# [41] = target: Fuc(a1-2)[GalNAc(a1-3)]Gal(b1-4)GlcNAc(b1-3)GalNAc
# Outline: as §1
# [42] = target: Fuc(a1-2)[GalNAc(a1-3)]Gal(b1-4)GlcNAc(b1-3)[Fuc(a1-2)[GalNAc(a1-3)]Gal(b1-4)GlcNAc(b1-6)]GalNAc
# Outline: as §1
# [43] = target: Fuc(a1-2)[GalNAc(a1-3)]Gal(b1-4)GlcNAc(b1-6)GalNAc
# Outline: as §1
# [44] = target: Fuc(a1-2)[GalNAc(a1-3)]Gal(b1-4)[Fuc(a1-3)]GlcNAc
# Outline: as §1
# [45] = target: Fuc(a1-2)[GalNAc(a1-3)]Gal(b1-4)[Fuc(a1-3)]GlcNAc(b1-3)GalNAc
# Outline: as §1
binder,measurement,setting,value
"CSA (Cytisus scoparius), P29257 (protein) SEELSFSFTKFKTDQKNLILQRDALITPTGKLQLTTVENGKPAAYSLGRALYSTPIHIWDKSTGDEASFATFFSFVISDAPNPSTAATDGLAFFLAPADTQPQSAGGYLGLFEKDSSYNSSNQIVAVEFDTYYNSAWDPQTNPHIGIDVNTIKSKKVSSWGFKNGNVATVLITYQPSSKSLVASLVYPSGQTSDKTSYIISANVDLKATVPEWVRIGFSATTGQTDNYIETHDILSWSFKSKLPATKN",glycan array binding signal (z-score),[1],-0.239
same,glycan array binding signal (z-score),[2],-0.196
same,glycan array binding signal (z-score),[3],-0.125
same,glycan array binding signal (z-score),[4],-0.197
same,glycan array binding signal (z-score),[5],-0.179
same,glycan array binding signal (z-score),[6],-0.18
same,glycan array binding signal (z-score),[7],-0.234
same,glycan array binding signal (z-score),[8],-0.199
same,glycan array binding signal (z-score),[9],-0.176
same,glycan array binding signal (z-score),[10],-0.153
same,glycan array binding signal (z-score),[11],-0.143
same,glycan array binding signal (z-score),[12],-0.159
same,glycan array binding signal (z-score),[13],-0.13
same,glycan array binding signal (z-score),[14],-0.176
same,glycan array binding signal (z-score),[15],-0.197
same,glycan array binding signal (z-score),[16],-0.181
same,glycan array binding signal (z-score),[17],-0.169
same,glycan array binding signal (z-score),[18],-0.195
same,glycan array binding signal (z-score),[19],-0.208
same,glycan array binding signal (z-score),[20],-0.16
same,glycan array binding signal (z-score),[21],-0.165
same,glycan array binding signal (z-score),[22],-0.201
same,glycan array binding signal (z-score),[23],-0.181
same,glycan array binding signal (z-score),[24],-0.159
same,glycan array binding signal (z-score),[25],-0.192
same,glycan array binding signal (z-score),[26],-0.194
same,glycan array binding signal (z-score),[27],-0.196
same,glycan array binding signal (z-score),[28],-0.184
same,glycan array binding signal (z-score),[29],-0.192
same,glycan array binding signal (z-score),[30],-0.115
same,glycan array binding signal (z-score),[31],-0.206
same,glycan array binding signal (z-score),[32],-0.15
same,glycan array binding signal (z-score),[33],-0.214
same,glycan array binding signal (z-score),[34],-0.153
same,glycan array binding signal (z-score),[35],-0.184
same,glycan array binding signal (z-score),[36],-0.18
same,glycan array binding signal (z-score),[37],-0.132
same,glycan array binding signal (z-score),[38],-0.142
same,glycan array binding signal (z-score),[39],-0.112
same,glycan array binding signal (z-score),[40],-0.012
same,glycan array binding signal (z-score),[41],-0.156
same,glycan array binding signal (z-score),[42],-0.225
same,glycan array binding signal (z-score),[43],-0.105
same,glycan array binding signal (z-score),[44],-0.127
same,glycan array binding signal (z-score),[45],-0.2
